Assay results reported in the supplement of paper PMC4604168 (melanoma cell lines).
The other results are listed elsewhere or left out. Most values come without repeats; read them as rough.

What was measured:
Experiment in all cases: cell count relative to DMSO control; melanoma cells; higher = more viable cells
Conditions in all cases: library dose: low library concentration; 72 h
WM115 = test system: WM115
WM1716 = test system: WM1716
WM1745 = test system: WM1745
WM3526 = test system: WM3526
WM3619 = test system: WM3619
WM451Lu = test system: WM451Lu
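Note: cell number obtained by counting DAPI-stained nuclei in high-throughput microscope images with image analysis software, screen run in 1,536-well plates.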

Cc1nc(Nc2ncc(C(=O)Nc3c(C)cccc3Cl)s2)cc(N2CCN(CCO)CC2)n1 [dasatanib] + Oc1nc(-c2ccc(C(F)(F)F)cc2)nc2c1CSCC2 [XAV939] (first compound 0.004 µM, partner dose 2 µM)
cell count (WM115): 57.4% | cell count (WM1716): 43.2% | cell count (WM1745): 43.9% | cell count (WM3526): 100% | cell count (WM3619): 80.6% | cell count (WM451Lu): 97.1%

C[C@]1(c2nc3c(C(N)=O)cccc3[nH]2)CCCN1 [Veliparib] + OCCn1cc(-c2cnc3nnn(Cc4ccc5ncccc5c4)c3n2)cn1 [PF04217903] (first compound 1.4 µM, partner dose 1 µM)
cell count (WM115): 90.7% | cell count (WM1716): 86% | cell count (WM1745): 90.7% | cell count (WM3526): 96.4% | cell count (WM3619): 94.2% | cell count (WM451Lu): 124%

CO[C@@H]1[C@H](N(C)C(=O)c2ccccc2)C[C@H]2O[C@]1(C)n1c3ccccc3c3c4c(c5c6ccccc6n2c5c31)C(=O)NC4 [Midostaurin] + Oc1cc(-c2nc(-c3ccccc3)[nH]c2-c2ccncc2)ccc1Cl [L779450] (first compound 0.08 µM, partner dose 0.2 µM)
cell count (WM115): 69.2% | cell count (WM1716): 99% | cell count (WM1745): 78.2% | cell count (WM3526): 70.8% | cell count (WM3619): 77.2% | cell count (WM451Lu): 96.5%

Cc1nc(Nc2ncc(C(=O)Nc3c(C)cccc3Cl)s2)cc(N2CCN(CCO)CC2)n1 [dasatanib] + c1cc(-c2cnn3cc(-c4ccc(OCCN5CCCCC5)cc4)cnc23)ccn1 [Dorsomorphin] (first compound 0.004 µM, partner dose 0.4 µM)
cell count (WM115): 63.6% | cell count (WM1716): 81.2% | cell count (WM1745): 54.3% | cell count (WM3526): 81.7% | cell count (WM3619): 76% | cell count (WM451Lu): 80%

Cc1nc(Nc2ncc(C(=O)Nc3c(C)cccc3Cl)s2)cc(N2CCN(CCO)CC2)n1 [dasatanib] + OCCn1cc(-c2cnc3nnn(Cc4ccc5ncccc5c4)c3n2)cn1 [PF04217903] (first compound 0.004 µM, partner dose 1 µM)
cell count (WM115): 75.5% | cell count (WM1716): 63.2% | cell count (WM1745): 58.9% | cell count (WM3526): 116% | cell count (WM3619): 76.3% | cell count (WM451Lu): 64.6%

Cc1nc(Nc2ncc(C(=O)Nc3c(C)cccc3Cl)s2)cc(N2CCN(CCO)CC2)n1 [dasatanib] + Cc1cc(N2CCOCC2)cc2[nH]c(-c3c(NC[C@@H](O)c4cccc(Cl)c4)cc[nH]c3=O)nc12 [BMS536924] (first compound 0.004 µM, partner dose 0.2 µM)
cell count (WM115): 77.9% | cell count (WM1716): 66.6% | cell count (WM1745): 39.3% | cell count (WM3526): 96.7% | cell count (WM3619): 82.5% | cell count (WM451Lu): 60.4%

OCCn1cc(-c2cnc3nnn(Cc4ccc5ncccc5c4)c3n2)cn1 + O=S(=O)(c1ccccc1)N(CC(F)(F)F)c1ccc(C(O)(C(F)(F)F)C(F)(F)F)cc1 [T0901317] (first compound 1 µM, partner dose 1.4 µM)
cell count (WM115): 97.1% | cell count (WM1716): 105% | cell count (WM1745): 84.8% | cell count (WM3526): 109% | cell count (WM3619): 87.8% | cell count (WM451Lu): 82.3%

CN(C)S(=O)(=O)c1ccc2c(c1)/C(=C/c1cc3c([nH]1)CCCC3)C(=O)N2 + NCC(=O)Nc1ccc(-n2nc(C(F)(F)F)cc2-c2ccc3c(ccc4ccccc43)c2)cc1 [OSU03012] (first compound 0.4 µM, partner dose 1 µM)
cell count (WM115): 82.9% | cell count (WM1716): 86% | cell count (WM1745): 96.7% | cell count (WM3526): 50.7% | cell count (WM3619): 95.9% | cell count (WM451Lu): 58.7%

Cc1nc(Nc2ncc(C(=O)Nc3c(C)cccc3Cl)s2)cc(N2CCN(CCO)CC2)n1 [dasatanib] + C[C@]1(c2nc3c(C(N)=O)cccc3[nH]2)CCCN1 [Veliparib] (first compound 0.004 µM, partner dose 1.4 µM)
cell count (WM115): 69.8% | cell count (WM1716): 71.4% | cell count (WM1745): 59.7% | cell count (WM3526): 109% | cell count (WM3619): 88.1% | cell count (WM451Lu): 66.6%

C=CCn1c(=O)c2cnc(Nc3ccc(N4CCN(C)CC4)cc3)nc2n1-c1cccc(C(C)(C)O)n1 + NC(=O)Nc1cc(-c2cccc(F)c2)sc1C(=O)N[C@H]1CCCNC1 [AZD7762] (first compound 0.02 µM, partner dose 0.02 µM)
cell count (WM115): 71% | cell count (WM1716): 72.4% | cell count (WM1745): 77.5% | cell count (WM3526): 42.4% | cell count (WM3619): 26.7% | cell count (WM451Lu): 68.7%

C[C@]1(c2nc3c(C(N)=O)cccc3[nH]2)CCCN1 [Veliparib] + CN(NC(=O)CC(=O)NN(C)C(=S)c1ccccc1)C(=S)c1ccccc1 [STA4783] (first compound 1.4 µM, partner dose 0.006 µM)
cell count (WM115): 74.2% | cell count (WM1716): 79.7% | cell count (WM1745): 33.2% | cell count (WM3526): 82.6% | cell count (WM3619): 36.7% | cell count (WM451Lu): 89.3%

C=CCn1c(=O)c2cnc(Nc3ccc(N4CCN(C)CC4)cc3)nc2n1-c1cccc(C(C)(C)O)n1 + Oc1nc(-c2ccc(C(F)(F)F)cc2)nc2c1CSCC2 [XAV939] (first compound 0.02 µM, partner dose 2 µM)
cell count (WM115): 79.8% | cell count (WM1716): 86.2% | cell count (WM1745): 65% | cell count (WM3526): 82.8% | cell count (WM3619): 85.6% | cell count (WM451Lu): 100%

NC(=O)Nc1cc(-c2cccc(F)c2)sc1C(=O)N[C@H]1CCCNC1 + COc1cc(N2CCC(N3CCN(C)CC3)CC2)ccc1Nc1ncc(Cl)c(Nc2ccccc2S(=O)(=O)C(C)C)n1 [NVP-TAE684] (first compound 0.02 µM, partner dose 0.08 µM)
cell count (WM115): 91.5% | cell count (WM1716): 88.6% | cell count (WM1745): 82.3% | cell count (WM3526): 98.8% | cell count (WM3619): 45.5% | cell count (WM451Lu): 85.8%
